± gives the standard deviation of the averaged measurements. Over roughly 33,000 sequences, “E-score (dimensionless, -0.5 to 0.5)” has its median near -0.049; the highest 2% begin near 0.37. Some of the results follow.
The sequences below were run on T1, PmTbr T-box DNA-binding domain (GST fusion) (assay: PBM E-score of 8-mer (E-score (dimensionless, -0.5 to 0.5)); Tbr is Tbrain of the sea star Patiria miniata (Pm) or the sea urchin Strongylocentrotus purpuratus (Sp); higher = stronger binding preference; most listed sequences are background and not binding sites). Conditions: the construct has about 5 more residues each side.
T1 sequence: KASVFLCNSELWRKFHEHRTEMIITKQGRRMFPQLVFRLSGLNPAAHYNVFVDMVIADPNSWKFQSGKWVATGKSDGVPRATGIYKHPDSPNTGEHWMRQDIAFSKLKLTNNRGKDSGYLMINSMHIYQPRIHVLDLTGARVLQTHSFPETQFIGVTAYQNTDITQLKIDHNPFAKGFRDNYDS
In short: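 Using the Universal PBM Analysis Suite, every ungapped 8-mer received an enrichment E-score averaged over duplicate arrays. Probe intensities came from double-stranded Universal Agilent oligonucleotide arrays incubated with 200 nM GST-fused Tbr T-box DNA-binding domain in PBS (pH 7.5). That protein was expressed in BL21 E. coli at 20 °C and purified by glutathione affinity chromatography.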

Sequence | PBM E-score of 8-mer
ACCATTAA | -0.0404 ± 0.015
ATTCCTTA | -0.236 ± 0.046
AACCCAGA | 0.0359 ± 0.041
AACGGTGT | 0.242 ± 0.066
GCAGTGAA | 0.022 ± 0.013
CACACATA | 0.365 ± 0.021
CAGTACTC | 0.0138 ± 0.039
CTGTGCAA | -0.283 ± 0.027
CCGTGACC | -0.0636 ± 0.13
AGGCTCTC | -0.174 ± 0.016
CCCTAGTC | 0.000385 ± 0.0004
GAAGGCTC | -0.203 ± 0.036
CTGACGCA | 0.0742 ± 0.014
CCACCGTA | -0.0252 ± 0.013
TCTTCGAA | -0.0666 ± 0.028
CTAAGAAC | -0.0569 ± 0.022
CACATGAA | 0.0841 ± 0.0091
ATAAGAAC | -0.0365 ± 0.043
CAGCACGG | 0.00459 ± 0.12
ACGAGTAG | -0.255 ± 0.006
AACTTATA | -0.129 ± 0.0057
ATCAGCGG | -0.0604 ± 0.051
AATTTGCC | -0.0125 ± 0.015
CTTCGACC | -0.308 ± 0.016
ATACCAAT | -0.119 ± 0.021

Sequence | PBM E-score of 8-mer
GATTAGCC | -0.193 ± 0.061
CAATGCCG | -0.241 ± 0.057
TATTCTCA | 0.245 ± 0.031
AAATACGG | 0.0698 ± 0.0049
CCGTCAAG | 0.0946 ± 0.031
CAACGGGG | -0.016 ± 0.055
ATCACCAT | 0.155 ± 0.014
AACAATAA | 0.0426 ± 0.025
CATTTAAC | 0.171 ± 0.02
CCCAAGGA | -0.107 ± 0.058
CTCGCCAC | 0.323 ± 0.017
ATTCACCG | -0.106 ± 0.027
GTATCGAC | 0.069 ± 0.053
GCAACACA | 0.311 ± 0.0054
AACCATGT | 0.183 ± 0.045
ACCGAATG | -0.119 ± 0.0097
AGTCTAAC | -0.0883 ± 0.064
AAACGCCG | 0.0335 ± 0.0096
GAGAGGGC | 0.049 ± 0.037
ACCTCTGA | 0.0725 ± 0.053
CGAGATGA | -0.0792 ± 0.026
CCCCTGGC | -0.00462 ± 0.029
CAGTGAAG | 0.0395 ± 0.054
AACCTGGC | 0.195 ± 0.038
ATCTTGGG | -0.12 ± 0.0014

Sequence | PBM E-score of 8-mer
GACTAATC | -0.123 ± 0.012
GTCCCAAC | -0.193 ± 0.074
GTAGAGTA | -0.1984 ± 0.0017
GGTCACAA | 0.212 ± 0.048
CAAGGTGC | 0.4331 ± 0.00078
ACTAATTC | -0.0699 ± 0.029
GATGCATC | -0.166 ± 0.041
AAAGGCCC | -0.345 ± 0.0035
AGCATTCA | -0.156 ± 0.026
ATCCATAA | -0.202 ± 0.035
AGTGATTC | 0.135 ± 0.092
ACGGTAAT | -0.0598 ± 0.011
ACATCAGA | -0.216 ± 0.047
AGACGTGC | 0.0669 ± 0.017
AGCCTGTA | -0.214 ± 0.078
GCGTAAGA | -0.0611 ± 0.0097
AACGGAGG | 0.0408 ± 0.056
GACTACCC | -0.11 ± 0.006
AATAGGCG | 0.224 ± 0.0023
AAAATCCA | -0.261 ± 0.046
AACTCTGT | -0.0925 ± 0.011
CGCCTACC | 0.169 ± 0.044
ACCATCAC | 0.209 ± 0.012
GCGAACTA | 0.135 ± 0.051
AGCATTGC | -0.192 ± 0.046

Sequence | PBM E-score of 8-mer
CGACCGGC | -0.00745 ± 0.037
GGGTACAA | -0.346 ± 0.018
CGGCAAAG | -0.197 ± 0.0097
ACGTTTCA | -0.0816 ± 0.035
AAACATCT | -0.112 ± 0.027
GGTATCCA | -0.312 ± 0.0063
AGTAATCG | 0.0908 ± 0.014
AACTAGCA | 0.217 ± 0.026
GTTGGTCA | -0.143 ± 0.0084
ACATCCTG | 0.0332 ± 0.063
AGATCTGC | 0.0583 ± 0.037
AGACTGCT | -0.251 ± 0.0051
GCGTTCCC | 0.0727 ± 0.14
GTCCTACA | -0.1884 ± 0.00044
AGCATAAG | -0.309 ± 0.017
ACTTGATC | -0.181 ± 0.017
GGACGTTA | -0.262 ± 0.07
AATCTGTA | -0.195 ± 0.0054
ATCACATC | 0.195 ± 0.058
CCACAGTA | -0.161 ± 0.11
ACGGGCAG | -0.0614 ± 0.042
GAGATTAA | -0.0614 ± 0.094
ATTTGTTA | 0.109 ± 0.081
AGAGGCTC | -0.182 ± 0.061
CATTAATG | -0.284 ± 0.014

Sequence | PBM E-score of 8-mer
GGGACTAC | -0.252 ± 0.024
CTTGGTAC | 0.0262 ± 0.049
AATATGCC | -0.296 ± 0.028
CTTTTCAC | 0.305 ± 0.054
CTGATTAA | -0.146 ± 0.062
CAGTAATA | -0.0753 ± 0.039
CGAGCGGA | -0.294 ± 0.016
CAATGCAC | -0.0352 ± 0.00081
GAGGGCGC | 0.174 ± 0.043
CATAGATG | 0.043 ± 0.013
GGAGAGCA | -0.183 ± 0.018
GACGCAGA | -0.157 ± 0.0063
GGAAGGAC | -0.2825 ± 0.0015
GAGTTAAA | -0.135 ± 0.093
ATCTGAAG | -0.261 ± 0.022
AATCGTTC | -0.17 ± 0.013
CCTGGGTC | -0.201 ± 0.022
AGTTGATG | -0.059 ± 0.034
AAGTACAG | 0.0294 ± 0.0034
CGCAGCAA | 0.121 ± 0.056
AAATTGCT | -0.121 ± 0.025
GGGCGCTA | 0.346 ± 0.018
ATCCCAAG | -0.275 ± 0.07
ACCCACAC | 0.3374 ± 0.0032
TGTCTAAA | -0.0695 ± 0.011

Sequence | PBM E-score of 8-mer
CGTCCAAG | -0.0278 ± 0.029
ATCTTATC | -0.0724 ± 0.004
AGATGTCG | 0.161 ± 0.062
ACCCGCGA | 0.328 ± 0.011
AACTCGGG | -0.2567 ± 0.0024
AGGCGGCA | 0.12 ± 0.016
CCTAAGAC | -0.178 ± 0.094
CATGGTCG | -0.128 ± 0.012
GGCAACCC | -0.108 ± 0.014
AACACATT | 0.389 ± 0.028
CAACACTA | 0.323 ± 0.04
GAAATGGA | -0.0435 ± 0.084
ACTATGCT | 0.00416 ± 0.025
AGTTGTCG | 0.309 ± 0.0099
TTAAATAA | -0.0746 ± 0.12
ACAAGGCG | 0.149 ± 0.044
TCGCGCAA | 0.249 ± 0.028
ATCCGTAA | -0.0887 ± 0.078
CGTGGAGC | -0.239 ± 0.021
CAGGAATG | -0.0757 ± 0.044
GAGCAGAA | -0.113 ± 0.017
CGCGCCTA | 0.31251 ± 0.00022
ACTTGGAT | -0.0102 ± 0.017
GGATAGGA | -0.243 ± 0.0065
TGAGTAAA | 0.147 ± 0.022

Sequence | PBM E-score of 8-mer
AAAAAAAT | 0.081 ± 0.092
GAAAACGA | -0.245 ± 0.012
CTCAGAGC | 0.156 ± 0.053
TGGTAACA | 0.277 ± 0.028
AAATTACC | 0.0161 ± 0.14
AGAGTAGC | 0.00211 ± 0.11
GAGAAAAC | 0.0669 ± 0.12
ATATGAAA | -0.0947 ± 0.099
ATAATTGG | 0.0135 ± 0.017
AATATAGT | 0.0305 ± 0.12
CTGCAGTC | -0.0658 ± 0.016
TCCGACCA | -0.292 ± 0.071
TATCAGAA | -0.079 ± 0.035
ATGAGTTC | -0.0415 ± 0.02
ATAACCGG | 0.0419 ± 0.051
AGACTATG | -0.221 ± 0.06
GTATTATA | -0.223 ± 0.0079
CCCAAGTC | -0.153 ± 0.038
CACAGAAA | 0.0245 ± 0.04
GACTATGA | -0.0143 ± 0.032
CGGCATAA | -0.276 ± 0.0033
CCTCTCAC | 0.362 ± 0.013

Source: the supplement of paper PMC4166925
